# Assay results taken from the supplement of paper PMC8728848.
# Some of the results follow.
# B1: Spy0252 (Streptococcus pyogenes), Q9A1I9_STRP1 (protein)
# chain: MNMKKLASLAMLGASVLGLAACGGKSQKEAGASKSDTAKTEITWWAFPVFTQEKAEDGVGTYEKKLIAAFEKANPEIKVKLETIDFTSGPEKITTAIEAGTAPDVLFDAPGRIIQYGKNGKLADLNDLFTEEFTKDVNNDKLIQASKAGDTAYMYPISSAPFYMALNKKMLKDAGVLDLVKEGWTTDDFEKVLKALKDKGYNPGSFFANGQGGDQGPRAFFANLYSSHITDDKVTKYTTDDANSIKAMTKISNWIKDGLMMNGSQYDGSADIQNFANGQTSFTILWAPAQPGIQAKLLEASKVDYLEIPFPSDDGKPELEYLVNGFAVFNNKDEQKVAASKTFIQFIADDKEWGPKNVVRTGAFPVRTSYGDLYKDKRMEKIAEWTKFYSPYYNTIDGFAEMRTLWFPMVQAVSNGDEKPEDALKAFTEKANKTIKKTQ
# What was measured:
# Test in all cases: glycan array binding signal (z-score within array); higher = stronger binding
# Details in all cases: glycan notation: IUPAC condensed, linker removed
# [1] = target: Neu5Ac(a2-3)Gal(b1-4)[Fuc(a1-3)]GlcNAc(b1-3)Gal(b1-4)[Fuc(a1-3)]GlcNAc(b1-3)Gal(b1-4)[Fuc(a1-3)]GlcNAc
# In short: (§1)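 The binding signal is a Z-score computed within each array. Data were drawn from 3228 arrays in the Consortium for Functional Glycomics database, restricted to those with a known protein sequence. Scores were averaged over arrays of the same protein sequence at different concentrations or buffers, and over linkers, and negative values can be taken as non-binding.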
# [2] = target: Neu5Ac(a2-3)Gal(b1-4)[Fuc(a1-3)]GlcNAc(b1-6)[Gal(b1-3)]GalNAc
# In short: as §1
# [3] = target: Neu5Ac(a2-3)Gal(b1-4)[Fuc(a1-3)]GlcNAc(b1-6)[Neu5Ac(a2-3)Gal(b1-3)]GalNAc
# In short: as §1
# [4] = target: Neu5Ac(a2-3)Gal(b1-4)[Fuc(a1-3)]GlcNAc6S
# In short: as §1
# [5] = target: Neu5Ac(a2-3)Gal6S(b1-4)GlcNAc
# In short: as §1
# [6] = target: Neu5Ac(a2-3)Gal6S(b1-4)[Fuc(a1-3)]GlcNAc
# In short: as §1
# Neu5Ac(a2-3)GalNAc = target: Neu5Ac(a2-3)GalNAc
# In short: as §1
# [7] = target: Neu5Ac(a2-3)GalNAc(b1-4)GlcNAc
# In short: as §1
# [8] = target: Neu5Ac(a2-3)[GalNAc(b1-4)]Gal(b1-4)Glc
# In short: as §1
# [9] = target: Neu5Ac(a2-3)[GalNAc(b1-4)]Gal(b1-4)GlcNAc
# In short: as §1
# [10] = target: Neu5Ac(a2-3)[Neu5Ac(a2-6)]GalNAc
# In short: as §1
# Neu5Ac(a2-6)Gal = target: Neu5Ac(a2-6)Gal
# In short: as §1
# Neu5Ac(a2-6)Gal(b1-4)Glc = target: Neu5Ac(a2-6)Gal(b1-4)Glc
# In short: as §1
# [11] = target: Neu5Ac(a2-6)Gal(b1-4)GlcNAc
# In short: as §1
# [12] = target: Neu5Ac(a2-6)Gal(b1-4)GlcNAc(b1-2)Man(a1-3)Man(b1-4)GlcNAc(b1-4)GlcNAc
# In short: as §1
# [13] = target: Neu5Ac(a2-6)Gal(b1-4)GlcNAc(b1-2)Man(a1-3)[Gal(b1-4)GlcNAc(b1-2)Man(a1-6)]Man(b1-4)GlcNAc(b1-4)GlcNAc
# In short: as §1
# [14] = target: Neu5Ac(a2-6)Gal(b1-4)GlcNAc(b1-2)Man(a1-3)[GlcNAc(b1-2)Man(a1-6)]Man(b1-4)GlcNAc(b1-4)GlcNAc
# In short: as §1
# [15] = target: Neu5Ac(a2-6)Gal(b1-4)GlcNAc(b1-2)Man(a1-3)[GlcNAc(b1-2)Man(b1-4)GlcNAc(b1-2)Man(a1-6)]Man(b1-4)GlcNAc(b1-4)GlcNAc
# In short: as §1
# [16] = target: Neu5Ac(a2-6)Gal(b1-4)GlcNAc(b1-2)Man(a1-3)[Man(a1-6)]Man(b1-4)GlcNAc(b1-4)GlcNAc
# In short: as §1
# [17] = target: Neu5Ac(a2-6)Gal(b1-4)GlcNAc(b1-2)Man(a1-3)[Neu5Ac(a2-6)Gal(b1-4)GlcNAc(b1-2)Man(a1-6)]Man(b1-4)GlcNAc(b1-4)GlcNAc
# In short: as §1
# [18] = target: Neu5Ac(a2-6)Gal(b1-4)GlcNAc(b1-2)Man(a1-6)Man(b1-4)GlcNAc(b1-4)GlcNAc
# In short: as §1
# [19] = target: Neu5Ac(a2-6)Gal(b1-4)GlcNAc(b1-2)Man(a1-6)[Gal(b1-4)GlcNAc(b1-2)Man(a1-3)]Man(b1-4)GlcNAc(b1-4)GlcNAc
# In short: as §1
# [20] = target: Neu5Ac(a2-6)Gal(b1-4)GlcNAc(b1-2)Man(a1-6)[GlcNAc(b1-2)Man(a1-3)]Man(b1-4)GlcNAc(b1-4)GlcNAc
# In short: as §1
# [21] = target: Neu5Ac(a2-6)Gal(b1-4)GlcNAc(b1-2)Man(a1-6)[Man(a1-3)]Man(b1-4)GlcNAc(b1-4)GlcNAc
# In short: as §1
# [22] = target: Neu5Ac(a2-6)Gal(b1-4)GlcNAc(b1-3)Gal(b1-3)GlcNAc
# In short: as §1
# [23] = target: Neu5Ac(a2-6)Gal(b1-4)GlcNAc(b1-3)Gal(b1-4)GlcNAc
# In short: as §1
# [24] = target: Neu5Ac(a2-6)Gal(b1-4)GlcNAc(b1-3)Gal(b1-4)GlcNAc(b1-3)Gal(b1-4)GlcNAc
# In short: as §1
# [25] = target: Neu5Ac(a2-6)Gal(b1-4)GlcNAc(b1-3)Gal(b1-4)[Fuc(a1-3)]GlcNAc(b1-3)Gal(b1-4)[Fuc(a1-3)]GlcNAc
# In short: as §1
# [26] = target: Neu5Ac(a2-6)Gal(b1-4)GlcNAc(b1-3)GalNAc
# In short: as §1
# [27] = target: Neu5Ac(a2-6)Gal(b1-4)GlcNAc6S
# In short: as §1
# Neu5Ac(a2-6)GalNAc = target: Neu5Ac(a2-6)GalNAc
# In short: as §1
# [28] = target: Neu5Ac(a2-6)GalNAc(b1-4)GlcNAc
# In short: as §1
# [29] = target: Neu5Ac(a2-6)GlcNAc(b1-4)GlcNAc
# In short: as §1
# [30] = target: Neu5Ac(a2-6)GlcNAc(b1-4)GlcNAc(b1-4)GlcNAc
# In short: as §1
# Neu5Ac(a2-8)Neu5Ac = target: Neu5Ac(a2-8)Neu5Ac
# In short: as §1
# [31] = target: Neu5Ac(a2-8)Neu5Ac(a2-3)Gal(b1-4)Glc
# In short: as §1
# [32] = target: Neu5Ac(a2-8)Neu5Ac(a2-3)[GalNAc(b1-4)]Gal(b1-4)Glc
# In short: as §1
# [33] = target: Neu5Ac(a2-8)Neu5Ac(a2-8)Neu5Ac
# In short: as §1
# [34] = target: Neu5Ac(a2-8)Neu5Ac(a2-8)Neu5Ac(a2-3)Gal(b1-4)Glc
# In short: as §1
# [35] = target: Neu5Ac(a2-8)Neu5Ac(a2-8)Neu5Ac(a2-3)[GalNAc(b1-4)]Gal(b1-4)Glc
# In short: as §1
# [36] = target: Neu5Ac(a2-8)Neu5Ac(a2-8)Neu5Ac(a2-8)Neu5Ac(a2-3)[GalNAc(b1-4)]Gal(b1-4)Glc
# In short: as §1
# [37] = target: Neu5Ac(b2-6)Gal(b1-4)GlcNAc
# In short: as §1
# Neu5Ac(b2-6)GalNAc = target: Neu5Ac(b2-6)GalNAc
# In short: as §1
# [38] = target: Neu5Ac9Ac(a2-3)Gal(b1-3)GlcNAc
# In short: as §1
# [39] = target: Neu5Ac9Ac(a2-3)Gal(b1-4)GlcNAc
# In short: as §1
# [40] = target: Neu5Ac9Ac(a2-6)Gal(b1-4)GlcNAc
# In short: as §1
# [41] = target: Neu5Gc(a2-3)Gal(b1-3)GlcNAc
# In short: as §1
# [42] = target: Neu5Gc(a2-3)Gal(b1-3)[Fuc(a1-4)]GlcNAc
# In short: as §1
# Neu5Gc(a2-3)Gal(b1-4)Glc = target: Neu5Gc(a2-3)Gal(b1-4)Glc
# In short: as §1
# [43] = target: Neu5Gc(a2-3)Gal(b1-4)GlcNAc
# In short: as §1
# [44] = target: Neu5Gc(a2-3)Gal(b1-4)[Fuc(a1-3)]GlcNAc
# In short: as §1
# [45] = target: Neu5Gc(a2-6)Gal(b1-4)GlcNAc
# In short: as §1
# Neu5Gc(a2-6)GalNAc = target: Neu5Gc(a2-6)GalNAc
# In short: as §1
# [46] = target: Neu5Gc(b2-6)Gal(b1-4)GlcNAc
# In short: as §1
binder,measurement,setting,value
B1,glycan array binding signal (z-score),[1],-0.264
same,glycan array binding signal (z-score),[2],-0.101
same,glycan array binding signal (z-score),[3],-0.157
same,glycan array binding signal (z-score),[4],-0.278
same,glycan array binding signal (z-score),[5],-0.264
same,glycan array binding signal (z-score),[6],-0.269
same,glycan array binding signal (z-score),Neu5Ac(a2-3)GalNAc,-0.276
same,glycan array binding signal (z-score),[7],-0.272
same,glycan array binding signal (z-score),[8],-0.266
same,glycan array binding signal (z-score),[9],-0.146
same,glycan array binding signal (z-score),[10],-0.262
same,glycan array binding signal (z-score),Neu5Ac(a2-6)Gal,-0.242
same,glycan array binding signal (z-score),Neu5Ac(a2-6)Gal(b1-4)Glc,2.73
same,glycan array binding signal (z-score),[11],-0.27
same,glycan array binding signal (z-score),[12],-0.272
same,glycan array binding signal (z-score),[13],-0.259
same,glycan array binding signal (z-score),[14],-0.272
same,glycan array binding signal (z-score),[15],-0.267
same,glycan array binding signal (z-score),[16],-0.242
same,glycan array binding signal (z-score),[17],-0.26
same,glycan array binding signal (z-score),[18],-0.277
same,glycan array binding signal (z-score),[19],-0.265
same,glycan array binding signal (z-score),[20],-0.234
same,glycan array binding signal (z-score),[21],-0.26
same,glycan array binding signal (z-score),[22],-0.257
same,glycan array binding signal (z-score),[23],-0.269
same,glycan array binding signal (z-score),[24],-0.255
same,glycan array binding signal (z-score),[25],-0.245
same,glycan array binding signal (z-score),[26],-0.189
same,glycan array binding signal (z-score),[27],-0.269
same,glycan array binding signal (z-score),Neu5Ac(a2-6)GalNAc,1.2
same,glycan array binding signal (z-score),[28],-0.281
same,glycan array binding signal (z-score),[29],-0.264
same,glycan array binding signal (z-score),[30],-0.269
same,glycan array binding signal (z-score),Neu5Ac(a2-8)Neu5Ac,-0.268
same,glycan array binding signal (z-score),[31],7.23
same,glycan array binding signal (z-score),[32],-0.253
same,glycan array binding signal (z-score),[33],-0.27
same,glycan array binding signal (z-score),[34],7.09
same,glycan array binding signal (z-score),[35],-0.266
same,glycan array binding signal (z-score),[36],-0.065
same,glycan array binding signal (z-score),[37],-0.273
same,glycan array binding signal (z-score),Neu5Ac(b2-6)GalNAc,-0.278
same,glycan array binding signal (z-score),[38],-0.262
same,glycan array binding signal (z-score),[39],-0.274
same,glycan array binding signal (z-score),[40],-0.248
same,glycan array binding signal (z-score),[41],-0.265
same,glycan array binding signal (z-score),[42],-0.269
same,glycan array binding signal (z-score),Neu5Gc(a2-3)Gal(b1-4)Glc,5.2
same,glycan array binding signal (z-score),[43],-0.274
same,glycan array binding signal (z-score),[44],-0.247
same,glycan array binding signal (z-score),[45],-0.261
same,glycan array binding signal (z-score),Neu5Gc(a2-6)GalNAc,1.27
same,glycan array binding signal (z-score),[46],-0.274
